From PubChem BioAssay AID651820 (National Center for Advancing Translational Sciences (NCATS), 2012)
Among all 340,000 compounds or so, about 12,000 (3.5%) were called active. This list was built around the results that the source calls inconclusive (neither active nor inactive); the mix of calls is not that of the screen. The call rests on the fitted dose curve; in most records, active means well fitted inhibition curve with a large enough effect; inconclusive means small, poorly fitted or top-dose-only effect, or another doubt; inactive means no such curve, though single readings can be large or run the other way. No potency is given beside an inconclusive call; the fits are too rough.

Assay: qHTS Assay for Inhibitors of Hepatitis C Virus (HCV)
Conditions: Huh7.5.1 HCVcc-Cre (HCVcc is cell-culture hepatitis C virus) infection, luciferase reporter, 44 h; activity change, negative = inhibition: at 41.8 µM (top of the series) unless noted
In short: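 Whole-lifecycle infectious HCVcc-Cre system; cells 1,000/well, compound then virus (~0.5 moi) added 4 h after plating, 44 h culture. Luciferase read 15 sec following 15 min substrate incubation, room temp.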
On the % scale 0 is the no-effect control and ±100 the full control effect; potency means the concentration at half of the fitted maximal effect; tags describe the fitted curve by direction and shape.

Compound | Potency | activity change, negative = inhibition
O=C(Nc1nnc(COc2ccccc2)s1)C1CCN(S(=O)(=O)c2ccc(Cl)cc2)CC1 | inconclusive [inhibitor, partial curve, poor fit] | 
CCN(CC)S(=O)(=O)c1ccc2c(c1)c(=O)c(C(=O)NCCCN(C)c1ccccc1)cn2C | inactive | 
O=C(NC1CCN(Cc2ccccc2)CC1)C12CC3CC(CC(C3)C1)C2 | inconclusive [inhibitor, partial curve] | 
Cc1ccc(OCC(=O)Nc2cccc(S(=O)(=O)N3CCCCCC3)c2)c([N+](=O)[O-])n1 | inconclusive [inhibitor, single point] | 
Cc1nc2c(c(=O)n1CCC1=CCCCC1)c1nc3ccccc3nc1n2/N=C/c1ccco1 | inconclusive [inhibitor, single point] | 
CCCCCCCCCn1ccc(=N)cc1 | active: 0.0398 µM | 
O=C(/C=C/c1cc([N+](=O)[O-])ccc1OC(F)F)NCc1ccc(F)cc1 | inconclusive [inhibitor, partial curve] | 
CCCN1CCC[C@H](c2cccc(O)c2)C1 | inconclusive [inhibitor, full curve, poor fit] | 
Brc1ccc(-c2cnc(-c3cccs3)o2)cc1 |  | inactive: -18%
COc1ccccc1OCCn1cc(C#N)c2ccccc21 | inconclusive [inhibitor, single point] | 
Cc1nc2cc(-c3cccc(F)c3)nn2c(C)c1CCC(=O)NC(C)CCc1ccco1 (centres undefined) |  | inactive: -22.5%
COC(=O)COc1ccc(/C=N/NC(=O)c2ccc(N(Cc3ccccc3)S(C)(=O)=O)cc2)cc1 |  | inactive: -9.24%
CCOc1ccc(NC(=O)c2cc(C3CC3)nc3c2cnn3C(C)C)cc1OC | active: 10 µM | 
CCc1ccc2nc(N3C(=O)C(O)=C(C(=O)c4ccco4)C3c3cccs3)sc2c1 (centres undefined) | inconclusive [inhibitor, single point] | 
Cc1ccc(C(=O)N(C)CC(=O)Nc2cccc(F)c2)cc1S(=O)(=O)N1CCCCC1 |  | inactive: -18%
CCOc1ccccc1NC(=O)c1ccc(CN2CCc3ccccc3C2)cc1 | inconclusive [inhibitor, full curve] | 
O=C(CSc1nc2nn(-c3ccccc3)c(=O)c-2c2n1CCCCC2)NCCCc1ccccc1 | inconclusive [inhibitor, single point] | 
Cc1ccc(NCC(=O)Nc2cccc(F)c2)cc1S(=O)(=O)N1CCCCCC1 | inconclusive [inhibitor, single point] | 
Clc1cc(Br)ccc1OCCn1ccnc1 | inconclusive [inhibitor, single point] | 
